Data taken from the supplement of paper PMC10126150.
Sequences with one replicate were seen in a single cluster, so their values are uncertain.
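Also: ATP exposure 15 min at 22 °C before imaging.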

What follows are sequences tested on ATP (assay: switch fluorescence ratio, 500 uM ATP over buffer (Cy3 cluster intensity, sum of 5 cycles each) (fold (ratio)); higher = stronger signal-on switching upon ATP binding; sequences stand for … in TCGTCGGCAGCGTCAGATGTGTATAAGAGACAGTTTTTTTTTTTTTTTTTTTTTTTTT…TC). Settings: aptamer strand: ATP DNA aptamer (quencher-CACCTGGGGGAGTATTGCGGAGGAAGG + anchor), 100 nM annealed; ATP concentration: 500 uM; one replicate.
How it was run: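 The quencher-labelled ATP aptamer, at 100 nM, was annealed to Cy3-labelled switching-strand clusters on a modified Illumina MiSeq flow-cell. The clusters were imaged in selection buffer, then after 15 min with 500 uM ATP at 22 °C, and this buffer/ATP cycle ran five times with NaOH stripping and re-annealing between runs. Per-cluster fluorescence ratios, summed target-cycle over summed buffer-cycle Cy3 intensity, were averaged per switch-domain sequence. Clusters outside 100-1000 RFU were excluded.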
GACCGTGCTG was tested, and the switch fluorescence ratio was 0.917. Work on TAAGCTCAC yielded a switch fluorescence ratio of 1.03. Sequence TCGGTCGTTC has a switch fluorescence ratio of 1.03. In the case of CATGCTTGGA, the switch fluorescence ratio is reported as 0.971. Work on ATATCAACAT yielded a switch fluorescence ratio of 1.02. Work on CGAATCATGG yielded a switch fluorescence ratio of 0.965. Sequence TAAGATGAC has a switch fluorescence ratio of 1.02. Work on CACCGGGTTT yielded a switch fluorescence ratio of 1.12. Work on AGGAGCTTA yielded a switch fluorescence ratio of 0.963. With TGGAGCCGTT the switch fluorescence ratio was 1.2. Sequence ATCTATAATG has a switch fluorescence ratio of 1.01. With GACAACTTAG the switch fluorescence ratio was 1.03. TTAAGTTTCC gave a switch fluorescence ratio of 1.15. Work on CTTTGTTAGT yielded a switch fluorescence ratio of 1.01. With ATCATTACCA the switch fluorescence ratio was 0.985. GACGATAATT showed a switch fluorescence ratio of 1.08. AGATTATACT gave a switch fluorescence ratio of 1.02. TGAGTCAATA was tested, and the switch fluorescence ratio was 1.1. With ACTTTTGCAT the switch fluorescence ratio was 1. TATATACTAG gave a switch fluorescence ratio of 1. Sequence CAGACAAGTT has a switch fluorescence ratio of 1.01. Work on CCGCCTCTAG yielded a switch fluorescence ratio of 1.91. TGCGGGGACC was tested, and the switch fluorescence ratio was 1.09. For CAAGTTACCC, the switch fluorescence ratio was 1.1. CATCTTACTA showed a switch fluorescence ratio of 0.991. For AAGGGATCTC, the switch fluorescence ratio was 0.983. GGACAAGGTG showed a switch fluorescence ratio of 1.06. ATAGATCAA showed a switch fluorescence ratio of 1.04. CGGTCCTCTG gave a switch fluorescence ratio of 1.14. TCGCTTGATT showed a switch fluorescence ratio of 1.01. In the case of CAGAGTGAGC, the switch fluorescence ratio is reported as 1.06. With GATCATGGAG the switch fluorescence ratio was 1.01. Sequence ATAATATGAA has a switch fluorescence ratio of 0.948. Work on TGTAAGTTGT yielded a switch fluorescence ratio of 1.02. AGGTTACGGA gave a switch fluorescence ratio of 0.97. Sequence GACTGCCTGT has a switch fluorescence ratio of 1.04. GAGGGTAACT gave a switch fluorescence ratio of 0.959. GTTTCAAATA was tested, and the switch fluorescence ratio was 0.978. TGTGTTATTG showed a switch fluorescence ratio of 0.978. In the case of ATCTCATGTA, the switch fluorescence ratio is reported as 1.02. With TAAGTTTCGA the switch fluorescence ratio was 1.01. With AGACGGTGGC the switch fluorescence ratio was 0.997. Sequence GGAAGCTCTT has a switch fluorescence ratio of 0.994. AGGTTAACCC gave a switch fluorescence ratio of 1.01. CTCTTTAACG gave a switch fluorescence ratio of 0.986. AGGCATGTTT showed a switch fluorescence ratio of 0.968. With TTCATCAGAG the switch fluorescence ratio was 0.999. With ATGGTTATTT the switch fluorescence ratio was 1.05. Sequence CACCGTGGCA has a switch fluorescence ratio of 0.996. TCCGGGTTAG was tested, and the switch fluorescence ratio was 1.07. With ACGTCCACAT the switch fluorescence ratio was 1.4. In the case of GTGCATGAT, the switch fluorescence ratio is reported as 0.999. CTGGGACAGG showed a switch fluorescence ratio of 0.957. ACCGATAGGA gave a switch fluorescence ratio of 1.11. In the case of TATAGGTTGC, the switch fluorescence ratio is reported as 0.991. Work on CGTAAAACAT yielded a switch fluorescence ratio of 0.988. GCAGTCTGTA showed a switch fluorescence ratio of 0.946. In the case of TAGGTTC, the switch fluorescence ratio is reported as 0.92. For CTGGTACGCG, the switch fluorescence ratio was 0.993. GCCTTCTTCG was tested, and the switch fluorescence ratio was 1.03. CAATCTTGGT showed a switch fluorescence ratio of 1.08. GGAAACAGCA showed a switch fluorescence ratio of 1.03. GCGTGTAACA gave a switch fluorescence ratio of 1.02. ATATCTGGGG showed a switch fluorescence ratio of 0.972. Sequence ACGTGGTAAC has a switch fluorescence ratio of 1.04. Work on CTTGGGGCCA yielded a switch fluorescence ratio of 1.02. In the case of ATGAACCCTG, the switch fluorescence ratio is reported as 0.993. For AACCACACGA, the switch fluorescence ratio was 1.34. TTGGGCTCGA was tested, and the switch fluorescence ratio was 1.01. In the case of GACGTGCGCT, the switch fluorescence ratio is reported as 1.11. GTTTGCGGGA gave a switch fluorescence ratio of 0.952. TCGCCCTCGT gave a switch fluorescence ratio of 1.02. In the case of CGTTGTAAA, the switch fluorescence ratio is reported as 0.997. For GCCAGATTTA, the switch fluorescence ratio was 1.02. Work on TTTCGGCGAC yielded a switch fluorescence ratio of 1.08. GGTCTCCAGG gave a switch fluorescence ratio of 1.29. With GGTAACAGGC the switch fluorescence ratio was 1.05. Work on CCACGAAAGG yielded a switch fluorescence ratio of 1.24. In the case of TTACGGCTCT, the switch fluorescence ratio is reported as 1.04. Sequence CCATTAGAGA has a switch fluorescence ratio of 0.997. Sequence TGTGAAAATC has a switch fluorescence ratio of 0.93. Work on AGTGCATTAA yielded a switch fluorescence ratio of 1.02. For GAGCCGTTC, the switch fluorescence ratio was 1.02. GAATCTTTGC showed a switch fluorescence ratio of 1. GAAGAAGATG showed a switch fluorescence ratio of 0.976. With ATATCATGCT the switch fluorescence ratio was 0.968. Work on ATTTCGGGTG yielded a switch fluorescence ratio of 1.05. TTTAAACTTC gave a switch fluorescence ratio of 0.952. For CGGGAATGGG, the switch fluorescence ratio was 0.99. GGCGGAGTC was tested, and the switch fluorescence ratio was 1.03. CTATGCCCGA was tested, and the switch fluorescence ratio was 1.05. TAGAATTCTA gave a switch fluorescence ratio of 1.02. TGTGTAAGCA showed a switch fluorescence ratio of 1.01. For CCCGGGGTAG, the switch fluorescence ratio was 1.03. Sequence AAAGGATCTC has a switch fluorescence ratio of 1. In the case of CAATTCACCC, the switch fluorescence ratio is reported as 1.1. For TTCCAAAGTA, the switch fluorescence ratio was 1.01. In the case of TCAAATATTG, the switch fluorescence ratio is reported as 0.963. GTCAACGCGC showed a switch fluorescence ratio of 1.05. For CTTTGCTGAC, the switch fluorescence ratio was 2. GGCGATACCG gave a switch fluorescence ratio of 1.01. Sequence ACTTACGACT has a switch fluorescence ratio of 1.35. For GTTCGAGGGA, the switch fluorescence ratio was 0.977. Work on TTCTCTTCCG yielded a switch fluorescence ratio of 1.15. In the case of CCGTGCGTCC, the switch fluorescence ratio is reported as 1.34. CAGGCACAG gave a switch fluorescence ratio of 1.01. TAGGACAAAC showed a switch fluorescence ratio of 1.42. In the case of CTGCCTCGGA, the switch fluorescence ratio is reported as 0.982. Sequence CCATAATCTA has a switch fluorescence ratio of 0.987. For TTTCATAGAG, the switch fluorescence ratio was 0.971. Sequence ACCGGGCGGA has a switch fluorescence ratio of 1.01. With CCGTCTCTTG the switch fluorescence ratio was 1.04. For GTCATCAACT, the switch fluorescence ratio was 1.01. Sequence AGGGCCCAGG has a switch fluorescence ratio of 1.04. Sequence TCGTACCCCG has a switch fluorescence ratio of 1.01. ACCCTTGCTT was tested, and the switch fluorescence ratio was 0.999. CATAGATCTA gave a switch fluorescence ratio of 0.977. In the case of CTATTATGCA, the switch fluorescence ratio is reported as 0.997. In the case of GCGATTGTGG, the switch fluorescence ratio is reported as 1.01. CCATACATAA gave a switch fluorescence ratio of 1.07. CCAGATTTTC was tested, and the switch fluorescence ratio was 1.01. ATTAGCCGTT was tested, and the switch fluorescence ratio was 1.05. ATGTTAAGAA showed a switch fluorescence ratio of 0.997. TATATGGT was tested, and the switch fluorescence ratio was 1.04. With TAAGTATGCT the switch fluorescence ratio was 0.982. With CGGGTGGAAC the switch fluorescence ratio was 0.969. For GTAATTCATT, the switch fluorescence ratio was 0.946. TATATTCTAG gave a switch fluorescence ratio of 0.991. For ATGGGCTTCA, the switch fluorescence ratio was 1.04. With TTAGTATAG the switch fluorescence ratio was 0.997. With TATAGTGTGC the switch fluorescence ratio was 0.998. ACGCATAGGT gave a switch fluorescence ratio of 1.15. For CTGCCTATAT, the switch fluorescence ratio was 1.08. In the case of AATTATGGAC, the switch fluorescence ratio is reported as 1. In the case of CTAACCAAGA, the switch fluorescence ratio is reported as 1.01. In the case of AAAAACAAGT, the switch fluorescence ratio is reported as 1.01. With CCGTTAAGCA the switch fluorescence ratio was 2.22. TTGTTGGCTA gave a switch fluorescence ratio of 1. For TGGATTGGTG, the switch fluorescence ratio was 1. AGGTGAATGT was tested, and the switch fluorescence ratio was 1.02. ACTTTGGTAC was tested, and the switch fluorescence ratio was 1.06. With AGAGCTGACT the switch fluorescence ratio was 0.956. AAAAGTCCGT gave a switch fluorescence ratio of 1.03. TCCCCAGTAT was tested, and the switch fluorescence ratio was 1.15. Work on ACCTTGTATT yielded a switch fluorescence ratio of 1.02. In the case of GTGCTTAGCC, the switch fluorescence ratio is reported as 0.967. Work on TTTCTGATCA yielded a switch fluorescence ratio of 0.978. Sequence AGCTTCCACC has a switch fluorescence ratio of 2.22. TCGATTAAA showed a switch fluorescence ratio of 0.995. Sequence GGAGTCATGC has a switch fluorescence ratio of 1.07. TATAATGTT gave a switch fluorescence ratio of 0.988. Sequence CTTAGTCGCC has a switch fluorescence ratio of 0.979. With GTTTTCGACA the switch fluorescence ratio was 1.
